# Experimental data: the supplement of paper PMC11417369
# The other results are listed elsewhere or left out.
# Test system: PfSIP2 AP2 domain 1 (GST-tagged)
# Assay: gcPBM binding intensity (ln(normalized median fluorescence intensity)); higher = stronger DNA binding
# Method in brief: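 Using an Agilent 4 × 180k array, primer-extended double-stranded 36-bp intergenic genomic probes and negative controls were exposed for 1 h to GST-fused P. falciparum DNA-binding domains expressed in E. coli. Binding was carried out in 1× PBS with 1% milk, 0.2 mg/ml BSA, 0.5% salmon testes DNA and 0.03% Triton X-100, and protein was detected with Alexa488 anti-GST antibody and a 488 nm scan. Binding intensity is the highest Masliner-normalised natural-log median intensity across replicate spots of either probe orientation.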
row,Sequence,gcPBM binding intensity (ln)
1,TTAAAAATGATTGAATGTACAGATTAATATAATTTT [XGTACX_site7394],6.88
2,TAATTTTTGAAACACACACACATATATATATATATA [CACACA_site94],9.2
3,TTTAAATATATATTTAGTACTTATTCTTAAAATTTT [XGTACX_site624],7.15
4,TTTTTTTTTTTTTGTGCATGTAGATTTATTGTTATA [TGCATGCA_site582],7.52
5,AAAAAAGAATAGCACACACACATATATAAATATAAA [CACACA_site4518],6.96
6,GTAGAGGATTAAGAATGTACACATAAATACATATTT [XGTACX_site8874],7.16
7,AATTATACATACATATATATATTTATATATATATAT [GTGCAC_negctrl_site462],8.91
8,GTTACATACAGATACACACACATATATATATATATA [CACACA_site4652],9.57
9,TTATATCCCGTCCTTTATTAAAAAAATTTTTTTTCT [TGCATGCA_negctrl_site582],7.03
10,ATTAAAAAAAAAAGTATACACACTTCTTAATGTCAA [CACACA_site1244],6.7
11,ATGGGTTGTTCAAATAGTACATATGTAGCCCACCAT [XGTACX_site3735],7.06
12,TGCAACAAAATAAACACACACACACTAACACAAAAA [CACACA_site7567],7.07
13,TTTAAAAATAAAAGTACACACATAAACATATTGCAC [CACACA_site6784],8.8
14,TTTTCATTTGAAAGTCGTACAAGTTCGAAAAAAGGA [XGTACX_site6840],7.42
15,CTTAAAAAAACCTTAACACACATAAACTATAATTTA [CACACA_site3055],6.83
16,ATATTATATATATGTGCACACAAAAGATATATATAT [CACACA_site2125],9.12
17,ATAAGCAATAAAAAAACATGCATATTATTATCAACA [TGCATGCA_site1027],6.96
18,ATCAAGCACGGACACACACACACACCCAGACCCCCA [CACACA_site4360],7.43
19,AAGTTAACACAACAGGTGCAAGAAAAGTTTTTAATG,9.98
20,TCTTTAATATATAGTGCATGTAAATTTTACAATAAT [TGCATGCA_site242],9.82
21,TATGGTATATACAACACACACACATATGTATATATA [CACACA_site927],7.14
22,AGTTAATGTTTATGTACACACGGTGGGTATATATTT [CACACA_site5785],7.11
23,ATATATATATATATATATATAATTTTTTTTGTTTTT [TGCATGCA_negctrl_site453],9.66

row,Sequence,gcPBM binding intensity (ln)
1,GATATCAAAAAGATGGGTACATATATTTAAGTTCAT [XGTACX_site3822],6.97
2,TATATTATTAATTAGGGTACAAAAAAAAAATTTTTT [XGTACX_site7762],6.95
3,TAGGAAAAGAAAAGCACACACATAAATAGATATATA [CACACA_site6382],6.78
4,TTAAATAGAAATAAGACTAACAATGAACCAAAAAAA [CACACA_negctrl_site991],6.97
5,TTTTGAAAAAGTTGCACACAAAATTTAAAAAAAAAA [CACACA_site1632],7.35
6,TGCACAAAATTATGCACACACCTAAAATTAATTTTT [CACACA_site5596],8.28
7,GGCAATGATTTTAGGTGTACTTAAAAATCAAATTAA [XGTACX_site8587],7.18
8,ATTCTAATCATATACACACCCATATATATATATATA [CACACA_site1774],9.34
9,TAATTTCTTATGTGCTATCTTATATAGAATTAATTT [CACACA_negctrl_site1726],6.82
10,TATAAAAAATAAAATACACACACATATATATATATA [CACACA_site8365],9.05
11,AGCAGTCAGCAGGACAGTACACAGTAGCCAGGAAAT [XGTACX_site4877],6.82
12,AAAAAAAAAATTTAGGTGCATACAAATAAATTATAT [GTGCAC_site9521],9.85
13,TTATTCTAAAAAGGGTGTACACAAACGAATGGAAAA [XGTACX_site5662],7.86
14,ATGGCTAAAAGTTGCACACACACAAAAAAAAAAAAA [CACACA_site3289],7.88
15,TATATATTAATATGCACACACAAGAAGTAATTATAA [CACACA_site3193],8.06
16,ATTATATAACAAAATAGTACATATATTTATTACATC [XGTACX_site336],6.99
17,GGCATACACGGACACACACACACACCGACATATATA [CACACA_site4493],7.61
18,TTTTTTTAACGGTGTGCACACAATATACAGAAAAAA [CACACA_site1415],9.16
19,ATTATATATATTTATGCACACAAAATATATTATATA [CACACA_site9244],7.56
20,TATATACATTTATATACACACCTATATTTATTTATA [CACACA_site7014],6.99
21,CAACAATTTCGTCATACACACATTCAGAATCTATAT [CACACA_site7171],7.11
22,TATATTGAAAATAAAACATGCAATCACTCATACATA [TGCATGCA_site248],6.76
23,ATGTACCTATTTCATACACACACACCCACAAACAAA [CACACA_site8232],7.53

row,Sequence,gcPBM binding intensity (ln)
1,TATACATTTATGTACACACACATATAGGTATATTTA [CACACA_site7408],7.17
2,AAAATATAATATATTACACACATATATTTTATAAGT [CACACA_site668],6.79
3,TATGTTGGTTCTTTTAGTACATAATTACTAAATGTA [XGTACX_site8616],7.09
4,AAAACATACATATATACACACATATATATATATATA [CACACA_site1852],9.37
5,CAAACTACAAAATTTCGTACGCATATATTTCAAGTA [XGTACX_site5154],6.9
6,TTTAAACGTTATATAGTGCATGTCATATTTTATTAT,9.11
7,TACGTAATAATATGCACACAAATAAACTTTATAAAT [CACACA_site3501],8.22
8,CAAAAAAGTAAAACGTGTACATATATACATAAAAAT [XGTACX_site5639],7.18
9,CTTTTTTATATCTCTACACACATTTATAACAATTTG [CACACA_site1398],7.35
10,AAAAAATTATACCTTTGTACATAAATAAAATATTAT [XGTACX_site418],6.86
11,ATAACATAAGGAAATACACACATATATAAGTATATA [CACACA_site778],6.99
12,ACCCATTGCTCACGTGCACACATAGAAAAATAATTC [CACACA_site4389],10.1
13,TATGTATATATTTACGCATGCTACTCTATTTTGAGA [TGCATGCA_site990],6.89
14,AGGTTTCATTTAGCATGTACATATTATAAAAATTGT [XGTACX_site8448],7.03
15,TCTGTTAATATTTATACACACATATATATATATATA [CACACA_site1139],9.41
16,AAGATTACTTATATATGTACACATAATACAAATGTC [XGTACX_site520],7.03
17,TTTTTCATAAAAAAATAAAAAAAATTAACATAGAAA [XGTACX_negctrl_site11],6.7
18,ATAATATATACTATATGTACATATCTTTTCCTCTTT [XGTACX_site5553],7.1
19,TTTTAGAGTGGTATATATTAATTTTTAATAAAAAAA [CACACA_negctrl_site1652],6.82
20,AATAAAAGAAGACAGAGTACACAGGTTGTATTTTCC [XGTACX_site7208],6.82
21,TGTGCATAAATTTATGCACACATAAAAAAAAAAAAA [CACACA_site8954],9.95
22,ATAGTATCTGGTAGCTGTACGAGTCGTAGAGTGTAG [XGTACX_site2030],7.32
23,TGGGAAGGGTGGGAAACTTTATCAAAAACTTATTAC [GTGCAC_negctrl_site16],7.04

row,Sequence,gcPBM binding intensity (ln)
1,TATGTATTTTTTAAGTGTACCTATATATATATATAT [XGTACX_site7934],9.28
2,AGAAAGGTGGTATTAAAAGAATAACCTATGAATAAA [GTGCAC_negctrl_site325],6.79
3,TATAATAATAATTATTGTACGATTAGGTTAATTCAT [XGTACX_site1984],7.13
4,AAATAATATTTTTTTTTTTTTTTTTTTTTATGTTAT [CACACA_negctrl_site809],6.81
5,ATAGTCTTAATGACTACACACCTAACTATGCATGCA [CACACA_site5084],6.83
6,ATACAGTTGCATATGGTGCACGAATAATACACCTAT,11.3
7,AAAAAAAAAAAAAAAACACACAAATCATAAATAAAT [CACACA_site478],7.5
8,TGGTAGTATATCATAGAAATCATTGTATAACAAATA [XGTACX_negctrl_site569],6.72
9,ATTTTTCTTTTTAATACACACAAAAGTGATACAAAC [CACACA_site3923],7.19
10,TGTATTATATATACACAAATATTTATGTGTGTGTTT [XGTACX_negctrl_site475],7.1
11,TTTTTTTGTATTTGTTTATTTAATGATAAAATTAAA [CACACA_negctrl_site225],7.23
12,TTGTTCTATTTAAGTAGTACATACACACACATATAC [XGTACX_site8484],7.37
13,ACATATATATATTCTACACACTTATAATATAATACA [CACACA_site2461],7.32
14,ACTAAACTAATATGTACACACATATAACATTAATTT [CACACA_site7128],7.21
15,TATATATATATATATAGTACATATTTATATATGAAA [XGTACX_site8488],9.32
16,GAATTAAAATAATACGTACACACATGTATAATACAT [CACACA_site1004],7.1
17,TTTCGTTCATAAAAAAGTACATATGAGCAAAAGGTA [XGTACX_site8936],7.46
18,CACAATACTTTCATCACACATATATATATATATATA [CACACA_site4677],9.3
19,CATCTTATATAATCATGTACATATAGAGACTTCTTT [XGTACX_site7685],7.01
20,GGGGGAATTTACATGGGTACACATGTATTAAAAAAT [XGTACX_site4130],8.49
